# From the supplement of paper PMC12217912
# The list shows a part of the results. Sequences were assembled here from the parent chain. Inactive controls read about 0.05.
# B1: TEV protease; numbered along this chain (parent)
# chain: MGESLFKGPRDYNPISSSICHLTNESDGHTTSLYGIGFGPFIITNKHLFRRNNGTLVVQSLHGVFKVKDTTTLQQHLVDGRDMIIIRMPKDFPPFPQKLKFREPQREERICLVTTNFQTKSMSSMVSDTSCTFPSGDGIFWKHWIQTKDGQCGSPLVSTRDGFIVGIHSASNFTNTNNYFTSVPKNFMELLTNQEAQQWVSGWRLNADSVLWGGHKVFMVKPEEPFQPVKEATQL
# Variants of: B1
# Assay: raw area under fraction-flipped curve 0-4 h after induction (AUC4h, not background-subtracted), DNA-recorder readout of cleavage of the substrate (dimensionless); higher = more cleavage of the substrate by the protease variant
# Settings: temperature: 34 °C; time window: 0-4 h after rhamnose induction
# Method: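 In vivo DNA recorder in E. coli TOP10(DE3) ΔrhaA at 34 °C. Each TEVp single-site mutant (parent TEVp 0) is paired with a single-site variant of the 7-mer TEVs (canonical ENLYFQ|S). The substrate sits between flexible linkers in a Bxb1-sfGFP-TEVs-SsrA fusion, so cleavage stabilises Bxb1 and speeds flipping of a recombination array, read by NGS. The value is the raw area under the fraction-flipped curve over 0-4 h after rhamnose induction (AUC4h), with ≥20 reads per time point. It is not background-subtracted; inactive controls average about 0.047.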
# 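Also: Bxb1 expression induced with 0.2% (w/v) L-rhamnose at OD600 near 0.5, cultures sampled hourly, flipped fraction per protease–substrate barcode pair counted by paired-end Illumina sequencing.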
Variant,area with substrate ECLYFQS,area with substrate EELYFQS,area with substrate EFLYFQS,area with substrate EHLYFQS,area with substrate EILYFQS,area with substrate ELLYFQS,area with substrate EMLYFQS,area with substrate EPLYFQS,area with substrate EQLYFQS,area with substrate ERLYFQS,area with substrate ESLYFQS,area with substrate ETLYFQS,area with substrate EVLYFQS,area with substrate EWLYFQS,area with substrate EYLYFQS,area with substrate EDLYFQS,area with substrate EGLYFQS,area with substrate EKLYFQS
MGESLFKGPRDYNPISSSICHLTNESDGHTTSLYGIGFGPFIITNKHLFRRNNGTLVVQSLHGVFKVKDTTTLQQHLVDGRDMIIIRMPKDFPPFPQKLKFREPQREERICLVTTNFQTKSMSSMVSDTSCTFPSGDGIFWKHWIQTKDGQCGSPLVSTRDGFIVGIHSASNFTNTNNYFTSVPKNFMELLTNQEAQDWVSGWRLNADSVLWGGHKVFMVKPEEPFQPVKEATQL [Q198D],0.108,0.102,0.0929,0.142,0.089,0.0899,0.0957,0.178,0.127,0.108,0.0744,0.0978,0.0698,0.097,0.1,–,–,–
MGESLFKGPRDYNPISSSICHLTNESDGHTTSLYGIGFGPFIITNKHLFRRNNGTLVVQSLHGVFKVKDTTTLQQHLVDGRDMIIIRMPKDFPPFPQKLKFREPQREERICLVTTNFQTKSMSSMVSDTSCTFPSGDGIFWKHWIQTKDGQCGSPLVSTRDGFIVGIHSASNFTNTNNYFTSVPKNFMELLTNQEAQEWVSGWRLNADSVLWGGHKVFMVKPEEPFQPVKEATQL [Q198E],0.124,0.136,0.118,0.155,0.104,–,0.122,–,0.126,0.0975,0.122,–,0.108,0.0988,–,0.14,0.119,0.123
MGESLFKGPRDYNPISSSICHLTNESDGHTTSLYGIGFGPFIITNKHLFRRNNGTLVVQSLHGVFKVKDTTTLQQHLVDGRDMIIIRMPKDFPPFPQKLKFREPQREERICLVTTNFQTKSMSSMVSDTSCTFPSGDGIFWKHWIQTKDGQCGSPLVSTRDGFIVGIHSASNFTNTNNYFTSVPKNFMELLTNQEAQRWVSGWRLNADSVLWGGHKVFMVKPEEPFQPVKEATQL [Q198R],0.111,0.111,–,0.136,0.139,–,0.0969,0.0125,0.139,0.121,0.11,0.0895,–,0.092,0.123,0.11,–,0.125
MGESLFKGPRDYNPISSSICHLTNESDGHTTSLYGIGFGPFIITNKHLFRRNNGTLVVQSLHGVFKVKDTTTLQQHLVDGRDMIIIRMPKDFPPFPQKLKFREPQREERICLVTTNFQTKSMSSMVSDTSCTFPSGDGIFWKHWIQTKDGQCGSPLVSTRDGFIVGIHSASNFTNTNNYFTSVPKNFMELLTNQEAQQCVSGWRLNADSVLWGGHKVFMVKPEEPFQPVKEATQL [W199C],0.0861,0.0875,–,0.0564,–,0.0582,–,0.0593,0.0607,0.0612,0.0641,–,0.0601,–,–,0.053,–,0.0772
MGESLFKGPRDYNPISSSICHLTNESDGHTTSLYGIGFGPFIITNKHLFRRNNGTLVVQSLHGVFKVKDTTTLQQHLVDGRDMIIIRMPKDFPPFPQKLKFREPQREERICLVTTNFQTKSMSSMVSDTSCTFPSGDGIFWKHWIQTKDGQCGSPLVSTRDGFIVGIHSASNFTNTNNYFTSVPKNFMELLTNQEAQQLVSGWRLNADSVLWGGHKVFMVKPEEPFQPVKEATQL [W199L],0.065,–,–,0.0494,–,–,0.0529,–,0.0809,–,–,0.0703,0.0505,0.0561,–,–,–,0.0691
MGESLFKGPRDYNPISSSICHLTNESDGHTTSLYGIGFGPFIITNKHLFRRNNGTLVVQSLHGVFKVKDTTTLQQHLVDGRDMIIIRMPKDFPPFPQKLKFREPQREERICLVTTNFQTKSMSSMVSDTSCTFPSGDGIFWKHWIQTKDGQCGSPLVSTRDGFIVGIHSASNFTNTNNYFTSVPKNFMELLTNQEAQQRVSGWRLNADSVLWGGHKVFMVKPEEPFQPVKEATQL [W199R],0.0598,0.0672,–,–,0.0595,0.0737,0.063,0.0603,0.072,–,0.0705,0.063,–,0.0524,0.0678,0.0835,0.0626,–
MGESLFKGPRDYNPISSSICHLTNESDGHTTSLYGIGFGPFIITNKHLFRRNNGTLVVQSLHGVFKVKDTTTLQQHLVDGRDMIIIRMPKDFPPFPQKLKFREPQREERICLVTTNFQTKSMSSMVSDTSCTFPSGDGIFWKHWIQTKDGQCGSPLVSTRDGFIVGIHSASNFTNTNNYFTSVPKNFMELLTNQEAQQWMSGWRLNADSVLWGGHKVFMVKPEEPFQPVKEATQL [V200M],0.087,0.109,–,0.0805,0.0649,0.0746,0.0988,–,–,0.0469,0.0694,0.0618,–,0.0713,0.0905,0.0855,0.0716,–
MGESLFKGPRDYNPISSSICHLTNESDGHTTSLYGIGFGPFIITNKHLFRRNNGTLVVQSLHGVFKVKDTTTLQQHLVDGRDMIIIRMPKDFPPFPQKLKFREPQREERICLVTTNFQTKSMSSMVSDTSCTFPSGDGIFWKHWIQTKDGQCGSPLVSTRDGFIVGIHSASNFTNTNNYFTSVPKNFMELLTNQEAQQWVAGWRLNADSVLWGGHKVFMVKPEEPFQPVKEATQL [S201A],0.0836,0.108,–,–,0.0829,0.0775,0.0751,–,0.11,–,–,0.112,–,0.132,–,–,–,0.111
MGESLFKGPRDYNPISSSICHLTNESDGHTTSLYGIGFGPFIITNKHLFRRNNGTLVVQSLHGVFKVKDTTTLQQHLVDGRDMIIIRMPKDFPPFPQKLKFREPQREERICLVTTNFQTKSMSSMVSDTSCTFPSGDGIFWKHWIQTKDGQCGSPLVSTRDGFIVGIHSASNFTNTNNYFTSVPKNFMELLTNQEAQQWVSGWCLNADSVLWGGHKVFMVKPEEPFQPVKEATQL [R204C],0.072,0.12,0.141,0.146,0.104,–,0.129,0.172,0.134,0.128,0.123,0.121,0.119,0.121,0.118,0.135,0.0856,0.0421
